# Where two headings read alike, the source gives them in different places.
# Key:
# [1] = system: NF-κB pathway (P65, p-P65); assay: p-P65 immunoblot of lung tissue in ventilated mice; type: in vivo; settings: bixin pretreatment 200 mg/kg IP
# NRF2 signaling pathway = assay: Pulmonary NRF2 signaling pathway activation after IP injection (IHC, immunoblot, RT-PCR of lung tissue)
# [2] = humans, post-ingestion; cited from earlier work
# [3] = system: ventilation-induced lung injury (VILI); settings: for pulmonary pathological alterations caused by ventilation (HE staining): 200 mg/kg IP 72 h before
# [4] = only in ventilated Nrf2+/+ mice, bixin pretreatment
# [5] = ventilated Nrf2+/+ mice, bixin pretreatment
# [6] = ventilated Nrf2-/- mice, bixin pretreatment
smiles,measurement,setting,value
"COC(=O)/C=C/C(C)=C\C=C\C(C)=C\C=C\C=C(C)\C=C\C=C(C)\C=C\C(=O)O [bixin, Bixin]",p-P65 accumulation in lungs,[1]; ventilated Nrf2+/+ mice,decreased p-P65 accumulation
same,p-P65 accumulation in lungs,[1]; ventilated Nrf2-/- mice,very minimal effects
same,lung mRNA levels of Hmox1 and Gclm,"NRF2 signaling pathway; Nrf2+/+ mice (not Nrf2-/-), bixin, ventilation or the combination",only induced
same,lung mRNA levels of Keap1,"NRF2 signaling pathway; mice, 200 mg/kg IP",no effects
same,lung mRNA levels of Nrf2,"NRF2 signaling pathway; mice, treatment groups",did not increase
same,time of maximum bixin concentration in blood plasma,[2],2 h
same,total BAL protein,[3]; Nrf2+/+ mice following high tidal volume ventilation,significantly decreased
same,8-oxo-dG staining (oxidative DNA damage) in lungs,"[3]; mouse, in vivo",did not have any effect
same,cytotoxicity / oxidative DNA damage at the doses used in vivo,"[3]; mouse, in vivo",did not elicit any cytotoxicity or generate oxidative DNA damage
same,lung morphology (HE staining),"[3]; mouse, in vivo",did not affect the lung morphology
same,total BAL cell number or ratio of neutrophils,"[3]; mouse, in vivo",did not affect
same,total BAL protein,"[3]; mouse, in vivo",did not affect
same,IL6 in BAL fluid (ELISA),[3]; [4],reduced
same,TNFα in BAL fluid (ELISA),[3]; [4],reduced
same,pulmonary pathological alterations caused by ventilation (HE staining),[3]; ventilated Nrf2+/+ mice,dramatically attenuated
same,8-oxo-dG staining in lungs,[3]; [5],significantly suppressed
same,ventilation-induced neutrophil infiltration (total cells and ratio of neutrophils),[3]; [5],decreased
same,pulmonary pathological alterations caused by ventilation (HE staining),[3]; ventilated Nrf2-/- mice,no improvement was observed
same,8-oxo-dG staining in lungs,[3]; [6],but not
same,ventilation-induced neutrophil infiltration (total cells and ratio of neutrophils),[3]; [6],but not

# From patent publication US10300036B2, “Compositions and methods for treating and preventing lung injury” (ARIZONA BOARD OF REGENTS on behalf of THE UNIVERSITY OF …, priority 2015, dated 2019)
